The source gives no read counts; variants with many changes may rest on few reads.
B1: LINE1-full (parent)
chain: UACGUAGGUGGUUUUCCCCUGAUAGUGCUAAGGGGGCCUGGAAGUUUGGACUGGGCAGAGCUCAACACAGCGUGGCAAAGUGGCUGUGGCUAGACUGCCUCUCUGGAUUCCUCGUCACUCAGCAGGGCAUCUCUGAGAGAAAUGCC

Variants of: B1
Assay: self-cleavage, relative activity (ratio to wild type); higher = more cleavage; in vitro, sequencing; the parent is a self-cleaving ribozyme

Variant	self-cleavage
UACGUAGGUGGUUUUCCCCUGAUAGUGCUAAGGGGGCCUGGAAGUUUGGACUGGGCAGAGCACAACACUGCGUGGCAAGGUGGCUGUGGCUAGACUGCCUCUCUGGAUUCCUCGUCACUCAGCAGGGCAUCCCUGAGGGAAAUGCC [U62A A69U A79G U132C A138G]	0.06
UACGUAGGUGGUUUUCCCCUGAUAGUGCUAAGGGGGCCUGGAAGUUUGGACUGGGCAGAGCACAACACAGCGUGGCGAAGUGGCUGUGGCUAGACUGCCUCUCUGGAUUCCUCGUCACUCAGCAGGGCAUAUCUGAGAGAAAUGCC [U62A A77G C131A]	0
UACGUAGGUGGUUUUCCCCUGAUAGUGCUAAGGGGGCCUGGAAGUUUGGACUGGGCAGAGCACAACACAGCGUGGCUAAGUGGCCGUGGCCAGACCGCCUCUCUGGAUUCCUAGUCACUCAGCAGGGCAUCUCUGAGAGAAAUGCC [U62A A77U U85C U91C U96C C113A]	0
UACGUAGGUGGUUUUCCCCUGAUAGUGCUAAGGGGGCCUGGAAGUUUGGACUGGGCAGAGCACAACACAGCGUGGCAGAGUGGCCGUGGCUAGACUGCCUCUCUGGAUUCCUCGUCACUCAGCAGGGCAUCUCUGAGAAAAAUGCC [U62A A78G U85C G139A]	0
UACGUAGGUGGUUUUCCCCUGAUAGUGCUAAGGGGGCCUGGAAGUUUGGACUGGGCAGAGCACAACACAGCGUGGCAAGGUGGCUGUGGCUAGACUGCCUCUCUGGAUUCCUCGUCACUCAGCUGGGCAUCUCUGAGAGAAAUGCC [U62A A79G A124U]	0.12
UACGUAGGUGGUUUUCCCCUGAUAGUGCUAAGGGGGCCUGGAAGUUUGGACUGGGCAGAGCACAACACAGCGUGGCAAGGUGGCUGAGGCUAGACUGCCUCUCUGGAUUCCUCGUCACUCAGCAGGGCAUCUCUGAGAGAAAUGCC [U62A A79G U87A]	0.01
UACGUAGGUGGUUUUCCCCUGAUAGUGCUAAGGGGGCCUGGAAGUUUGGACUGGGCAGAGCACAACACAGCGUGGCAAGGUGGCUGUGGCAAGACCGCCUCUCUGGAUUCCUCGUCACUCAGCAGGGCAUCUCUGAGAGAAAUGCC [U62A A79G U91A U96C]	0.1
UACGUAGGUGGUUUUCCCCUGAUAGUGCUAAGGGGGCCUGGAAGUUUGGACUGGGCAGAGCACAACACAGCGUGGCAAAGUGGCUGUGGCUGGACUGCCUCUCUGGAUUCCUCGUCACUCAGCAGGGCAUCUCUGAGAGGAAUGCC [U62A A92G A140G]	0.06
UACGUAGGUGGUUUUCCCCUGAUAGUGCUAAGGGGGCCUGGAAGUUUGGACUGGGCAGAGCACAACACAGCGUGGCAAAGUGGCUGUGGCUAGACUGCCUCUCUGGGUUCCUCGUCACCCAGCAGGGCAUCUCUGAGAGAAAUGCC [U62A A107G U119C]	0
UACGUAGGUGGUUUUCCCCUGAUAGUGCUAAGGGGGCCUGGAAGUUUGGACUGGGCAGAGCACAACACAGCGUGGCAAAGUGGCUGUGGCUAGACUGCCUCUCUGGAUUCCUCGUCGCUCAGCAGGGCAUCUCUGAGAGGAAUGCC [U62A A117G A140G]	0.11
UACGUAGGUGGUUUUCCCCUGAUAGUGCUAAGGGGGCCUGGAAGUUUGGACUGGGCAGAGCACAACACAGCGUGGCAAAGUGGCUGUGGCUAGACUGCCUCUCUGGAUUCCUCGUCGCUCAGCAGGGCAUCUCUGAGAGAAACGCC [U62A A117G U143C]	0
UACGUAGGUGGUUUUCCCCUGAUAGUGCUAAGGGGGCCUGGAAGUUUGGACUGGGCAGAGCACAACACAGCGUGGCAAAGUGGCUGUGGCUAGACUGCCUCUCUGGAUUCCUCGUCACUCGGCAGGGCAUCUCUGAGGGAAAUGCC [U62A A121G A138G]	0
UACGUAGGUGGUUUUCCCCUGAUAGUGCUAAGGGGGCCUGGAAGUUUGGACUGGGCAGAGCACAACACAGCGUGGCAAAGUGGCUGUGGCUAGACUGCCUCUCUGGAUUCCUCGUCACUCGGCAGGGCAUCUCUGAGAGAGAUGCC [U62A A121G A141G]	0.05
UACGUAGGUGGUUUUCCCCUGAUAGUGCUAAGGGGGCCUGGAAGUUUGGACUGGGCAGAGCACAACACAGCGUGGCAAAGUGGCUGUGGCUAGACUGCCUCUCUGGAUUCCUCGUCACUCAGCAGGGCAUCUCUGAGGGAAAAGCC [U62A A138G U143A]	0.06
UACGUAGGUGGUUUUCCCCUGAUAGUGCUAAGGGGGCCUGGAAGUUUGGACUGGGCAGAGCACAACACAGUGUGGCAAAGUGGCUGUGGCUAGACCGCCUCUCUGGAUUCCUCGUCACUCAGCAGGGCAUCUCUGAGAGAAAUGCC [U62A C71U U96C]	0
UACGUAGGUGGUUUUCCCCUGAUAGUGCUAAGGGGGCCUGGAAGUUUGGACUGGGCAGAGCACAACACAGCGUGGCAAAGUGGCUGUGGCUAGACUGCCUCUCUGGAUUCCUCGUCACUUAGCAGGGCAUCUCCGAGAGAAAUGCC [U62A C120U U134C]	0.03
UACGUAGGUGGUUUUCCCCUGAUAGUGCUAAGGGGGCCUGGAAGUUUGGACUGGGCAGAGCACAACACAGCGUGGCAAAGUGACUGGGGCUAGACUGCCUCUCUGGAUUCCUCGUCACUCAGCAGGGCAUCUCUGAGAGAAAUGCC [U62A G83A U87G]	0.04
UACGUAGGUGGUUUUCCCCUGAUAGUGCUAAGGGGGCCUGGAAGUUUGGACUGGGCAGAGCACAACACAGCGUGGCAAAGUGGCUAUGGCUAGACUGCCUCUCCGGAUUCCUCGUCACUCAGCAGGGCAUCUCUGAGAGAAACGCC [U62A G86A U104C U143C]	0.03
UACGUAGGUGGUUUUCCCCUGAUAGUGCUAAGGGGGCCUGGAAGUUUGGACUGGGCAGAGCACAACACAGCGUGGCAAAGUGGCUGUGGCUAGACUUCCUCUCUGGACUCCUCGUCACUCAGCAGGGCAUCUCUGAGAGAAAUGCC [U62A G97U U108C]	0.02

— the RNAGym collection of RNA variant scans (doi:10.7554/elife.90254)
